# Source: PubChem BioAssay (NCATS)
# This list was built around the results that the source calls inconclusive (neither active nor inactive); the mix of calls is not that of the screen. Where the call is inconclusive, the potency comes from a doubtful curve fit. Calls of active or inactive are those of the source. Calls come from the whole dose curve; as a rule, active = well fitted curve in the direction sought with a large enough effect; inconclusive = small, poorly fitted or top-dose-only effect, or another doubt; inactive = no such curve, though single readings can be large; an effect the other way counts as inactive or inconclusive.
# Columns and labels:
# [1] = qHTS to identify inhibitors of the type 1 interferon - major histocompatibility complex class I in skeletal muscle: primary screen against the NCATS Mechanism Interrogation Plate v5.0 (MIPE) Libary (AID 1347411); settings: iHSKM cells + IFN-b, HiBiT-tagged MHC-I luminescence, 24 h; series mostly up to 45.8 µM; note: nearly all actives have a fitted effect of over 65% in size
# Summary of the method: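 Immortalized human C25cl48 myoblasts with HiBit knocked into endogenous HLA-B*08:01 were stimulated with 4.0 ng/ml IFN-beta and exposed to compounds (11-point 1:3 titration, top 46 uM final) for 24 hrs at 37 C; HiBiT lytic luminescence measured.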
# [2] = Primary qHTS for inhibitors of nuclear receptor binding SET domain protein 2 (NSD2) in an isogenic RCH-ACV NSD2 p.E1099K mutant (9B) (AID 1645876); note: nearly all actives have a fitted effect of over 70% in size
# [3] = Primary qHTS for inhibitors of nuclear receptor binding SET domain protein 2 (NSD2) in an RCH-ACV wild type WT cells (2C) (AID 1645877); note: nearly all actives have a fitted effect of over 70% in size
# [4] = molecular target: Glutathione peroxidase 1 (Homo sapiens) (UniProt P07203); test: Primary qHTS Assay for Inhibitors of Recombinant Selenoprotein Glutathione Peroxidase 1 (GPX1) (AID 1845191); note: nearly all actives have a fitted effect of over 65% in size
# Sequence of UniProt P07203 (P07203 whole entry, looked up): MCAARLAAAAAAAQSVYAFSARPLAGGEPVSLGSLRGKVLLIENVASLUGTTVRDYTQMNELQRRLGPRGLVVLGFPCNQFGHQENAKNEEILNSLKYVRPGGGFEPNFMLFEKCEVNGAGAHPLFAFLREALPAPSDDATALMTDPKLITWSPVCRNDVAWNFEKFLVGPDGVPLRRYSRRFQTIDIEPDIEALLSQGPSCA
# Summary of the method: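 10 nM GPX1 + cpd, 30 min RT; start w/ 1 mM GSH, 0.5 mM cumene hydroperoxide, 0.5 mM NADPH, 100 nM GR, 0.01% BSA; buffer 50 mM Tris-HCl pH 7.5, 2 mM EDTA, 150 mM NaCl; Fl 340/450, 0 & 15 min.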
# [5] = molecular target: Phospholipid hydroperoxide glutathione peroxidase GPX4 (Homo sapiens) (UniProt P36969); test: Primary qHTS Assay for Inhibitors of Recombinant Selenoprotein Glutathione Peroxidase 4 (GPX4) (AID 1845192); note: nearly all actives have a fitted effect of over 65% in size
# Sequence of UniProt P36969 (P36969 whole entry, looked up): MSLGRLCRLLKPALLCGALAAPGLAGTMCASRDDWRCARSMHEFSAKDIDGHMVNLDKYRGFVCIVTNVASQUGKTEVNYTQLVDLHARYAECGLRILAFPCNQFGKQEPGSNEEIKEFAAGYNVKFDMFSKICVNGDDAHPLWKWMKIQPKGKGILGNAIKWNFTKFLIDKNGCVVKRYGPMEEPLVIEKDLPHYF
# Summary of the method: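 NADPH consumption, followed by fluorescence at 340/450 nm between 0 and 15 min, reports GPX4 activity via coupled glutathione reductase (100 nM). Enzyme 200 nM was pre-exposed to compound 30 min; 0.5 mM cumene hydroperoxide and 1 mM GSH served as substrates.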
# Potency is the fitted concentration of half-maximal effect; tags give direction and shape of the fitted curve.
SMILES,Potency [1],Potency [2],Potency [3],Potency [4],Potency [5]
Cc1noc(-c2ccc(-c3ccc(C4(C(=O)O)CC4)cc3)cc2)c1NC(=O)O[C@H](C)c1ccccc1,"inconclusive: 1.31 µM [inhibitor, partial curve, poor fit]",active: 16.6 µM,active: 16.6 µM,"inconclusive: 18.3 µM [inhibitor, single point]",active: 9.04 µM
Cc1cc(O[C@@H](CCC(F)(F)F)c2ccc(C(=O)NCCC(=O)O)cc2)cc(C)c1-c1ccc(C(C)(C)C)cc1,"inconclusive: 26.2 µM [inhibitor, partial curve]","inconclusive: 16.6 µM [inhibitor, partial curve]",inactive,–,"inconclusive: 32.1 µM [inhibitor, single point]"
COC(=O)C1=C(C)NC(c2ncc(F)cc2F)=N[C@@H]1c1ccc(F)cc1Cl,active: 16.5 µM,"inconclusive: 33.2 µM [inhibitor, single point]",–,–,–
Nc1ncccc1-c1nc2ccc(-c3ccccc3)nc2n1-c1ccc(C2(N)CCC2)cc1,"inconclusive: 41.5 µM [inhibitor, single point]",active: 0.118 µM,–,active: 23 µM,active: 22.7 µM
NC(=O)c1ccc2nc(-c3ccc(C4(N)CCC4)cc3)c(-c3ccccc3)n2n1,"inconclusive: 41.5 µM [inhibitor, single point]",active: 0.296 µM,active: 0.332 µM,–,–
C/C(O)=C(\C#N)C(=O)Nc1ccc(C(F)(F)F)cc1,"inconclusive: 18.6 µM [inhibitor, partial curve]","inconclusive: 18.6 µM [inhibitor, partial curve]","inconclusive: 26.3 µM [inhibitor, partial curve]",–,–
